Laboratory results published in the supplement of paper PMC3334620.
In all, about 33,000 sequences were measured (“E-score (-0.5 to 0.5)”: median about -0.016, highest 2% from about 0.31 on). Some of the results follow.

Each sequence was assayed against Cst6 (UniProt P40535) (assay: PBM E-score (8-mer binding enrichment) (E-score (-0.5 to 0.5)); higher = stronger / more preferred TF binding; most listed sequences are background and not binding sites). Settings: protein concentration: 200 nM; construct: GST-DNA-binding domain.
Summary of the method: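 GST-tagged yeast TFs (full-length or DNA-binding domain) were made by PURExpress in vitro transcription/translation and applied at about 100-200 nM to universal all-10-mer Agilent arrays. The arrays were made double-stranded by primer extension, on fresh or once-stripped slides. Bound protein was detected with fluorescent anti-GST, and scans were normalised with masliner. Each ungapped eight-base word, pooled with its reverse complement, received an E-score (modified Wilcoxon-Mann-Whitney statistic) from the Universal PBM Analysis Suite.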

Row | Sequence | PBM E-score
1 | AGTTAGAT | 0.117
2 | ATCACCGC | 0.128
3 | ACCGAGCA | -0.0929
4 | ACTCGCCA | -0.037
5 | GGAATGCA | -0.0434
6 | ACGAGTTG | 0.0374
7 | ACGCGTTA | 0.0401
8 | GTTTATCA | 0.208
9 | GGGCGAAA | 0.00936
10 | ATTCTGCC | 0.124
11 | CAGAGACC | -0.059
12 | AATAGAAG | -0.0496
13 | TAGCAGGA | -0.17
14 | AAGTTCTG | 0.0297
15 | CTTAGAAA | 0.101
16 | CTGGATAC | -0.123
17 | CTGCTCGC | -0.251
18 | CGCGCGGA | 0.131
19 | CTCGCCTC | -0.0401
20 | AACCTCGG | -0.0342
21 | GGTTAGAC | -0.154
22 | ATTATAGA | 0.2
23 | CACTTAGG | -0.0458
24 | CGGTTACG | 0.14
25 | CTCTTCGC | -0.241

Row | Sequence | PBM E-score
26 | CAGGGGAG | -0.243
27 | AGGGTTCC | -0.287
28 | ACAATAAC | 0.196
29 | CCGGCGAC | -0.327
30 | GCAACTCA | -0.0113
31 | CTACCCAG | -0.256
32 | CCGCATCC | -0.00385
33 | TAGCCTGA | -0.0426
34 | CTGAAGCA | 0.0318
35 | ACAAAAGG | -0.0736
36 | ACGTAATA | 0.482
37 | GGCCCTTA | -0.0652
38 | CCACAGAA | -0.0102
39 | GAAAACGC | 0.154
40 | ATTGGGTA | -0.0621
41 | AATCGCAC | 0.0197
42 | AACACGAT | 0.164
43 | ATTTATTC | 0.297
44 | GGTACATA | -0.0661
45 | GATCGATA | 0.0815
46 | ACTAGAAC | 0.0684
47 | ACTTGCCA | -0.174
48 | CTCATAGC | -0.0933
49 | AGGGGGAT | -0.272
50 | GAATTTTA | 0.282

Row | Sequence | PBM E-score
51 | ATGTGAGG | 0.0542
52 | GCCGAGAC | -0.0932
53 | CACTCCGC | -0.171
54 | GCACTCCA | -0.217
55 | ACTTTCAG | -0.0757
56 | CATATCTC | 0.0326
57 | ACGATCAT | 0.133
58 | GGTACGAC | -0.199
59 | CATCCCAA | 0.0423
60 | CAGACAGA | 0.0485
61 | GGCTACTA | 0.0372
62 | CTCGATGC | -0.164
63 | TATGGAAA | 0.0824
64 | CGGACATC | -0.196
65 | CGCCGAAA | 0.0529
66 | CGCGGACC | -0.143
67 | AGTGGATC | -0.167
68 | ATATGGCG | 0.0911
69 | GGTCAAGA | 0.00732
70 | CAGGGTAA | -0.0548
71 | CCTACTAG | -0.0922
72 | CAGGATCA | -0.0696
73 | AGCACACG | 0.0295
74 | AAAATAAC | 0.178
75 | CACGTGAA | 0.0421

Row | Sequence | PBM E-score
76 | AGCCCAAT | -0.0737
77 | CCACTGGG | -0.0515
78 | CCTTTGTA | 0.0635
79 | AGGCAATC | 0.0471
80 | ACTTTTCA | 0.133
81 | GTCGGCAC | -0.169
82 | ACGAATGC | 0.0696
83 | AAGTACGT | 0.208
84 | CGGGATCA | -0.2
85 | ATCGCTTG | -0.17
86 | AAAACCCG | -0.0613
87 | CTATTCAC | 0.102
88 | AAGAGTGT | 0.0413
89 | CAAGAAGA | 0.129
90 | GGGTTAGA | -0.116
91 | CATCAACG | 0.228
92 | ACATCACT | 0.401
93 | GATAGGAC | -0.356
94 | ACGACATG | 0.18
95 | TGGTACCA | -0.16
96 | CAGCAATC | -0.00327
97 | ACCTACAT | -0.159
98 | CGCAAGAG | 0.0484
99 | GGGGCTAC | -0.21
100 | ACGGTACT | -0.113

Row | Sequence | PBM E-score
101 | GGATAGAC | -0.114
102 | AACATGAT | 0.197
103 | CACGAACC | -0.139
104 | AAGCGATC | -0.00449
105 | TAATCCTA | -0.118
106 | AAACACAC | 0.138
107 | AACTAAGT | -0.0134
108 | CCCTGCAG | -0.124
109 | CCTTCACG | -0.00619
110 | GGCCAAGA | -0.294
111 | CGTGAGAG | -0.269
112 | CCAAAGTC | -0.149
113 | ATGTGTCC | 0.00709
114 | GGCTGGAA | -0.204
115 | CGTTTTGC | 0.174
116 | GCTGGGGA | -0.334
117 | CTCGCACA | 0.00612
118 | CTGACAGC | -0.148
119 | GCATTACA | 0.187
120 | CAAAAACC | 0.0583
121 | CTGGAGGC | -0.21
122 | AGTTTATC | 0.19
123 | CTTTGCCA | -0.0186
124 | ATTGCGGC | -0.0327
125 | ATTATCTG | 0.0751

Row | Sequence | PBM E-score
126 | ACCGCAAA | 0.0877
127 | ATTCGGGA | -0.183
128 | CCATCGTA | 0.105
129 | AATTCTTA | 0.0873
130 | CCCGGGAA | -0.255
131 | GACAGACA | 0.00042
132 | AACATGTC | 0.0546
133 | CGACAACG | 0.119
134 | AACTGCGG | 0.0561
135 | ATTAACGA | 0.179
136 | AATAGAGG | -0.141
137 | CCGCCGAG | -0.164
138 | ATCTTACG | 0.213
139 | AAGTTTGG | 0.22
140 | AAATCGCT | -0.214
141 | CAGTAGCC | -0.254
142 | AAGATCGC | -0.0457
143 | CCGGGAAG | -0.184
144 | AGAGTATG | -0.189
145 | CGATACAG | -0.0771
146 | CCAATTTC | 0.107
147 | CCGTCCGA | -0.181
148 | ACACGTCC | -0.182
149 | CATTGACG | 0.358
150 | CCGTAGCA | 0.0411

Row | Sequence | PBM E-score
151 | GAACGAAA | -0.0138
152 | AGGTTAAC | 0.0395
153 | CCAGTGGG | -0.237
154 | GGTACTTA | -0.0213
155 | ATAGAGTC | -0.0801
156 | ACCTTTGC | -0.095
157 | AGGGCGGG | -0.0957
158 | AGACCAAT | -0.0669
159 | TACTTGAA | 0.113
160 | GCAGTACA | -0.164
161 | CAACGAAG | -0.107
162 | AGCGTACT | -0.157
163 | AAGGCCAG | -0.18
164 | CTACCAAG | -0.128
165 | ATATGTTG | 0.138
166 | AGGTGCAA | 0.0369
167 | GTCGAGAA | 0.089
168 | GGAAATCA | 0.0954
169 | CCCCAAAG | -0.168
170 | ATGGACAG | -0.166
171 | ATATCTCC | -0.0493
172 | GTGAAGAA | 0.0969
